Out of some 310,000 compounds screened, about 14,000 (4.5%) showed an effect of 50% or more. Effects have a minus sign here. The list shows a part of the results.
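Further: peak tail current of the secondary pulse compared with the same well before compound.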

Sequence of human ether-à-go-go-related gene (hERG) potassium channel (Q12809 whole entry, looked up): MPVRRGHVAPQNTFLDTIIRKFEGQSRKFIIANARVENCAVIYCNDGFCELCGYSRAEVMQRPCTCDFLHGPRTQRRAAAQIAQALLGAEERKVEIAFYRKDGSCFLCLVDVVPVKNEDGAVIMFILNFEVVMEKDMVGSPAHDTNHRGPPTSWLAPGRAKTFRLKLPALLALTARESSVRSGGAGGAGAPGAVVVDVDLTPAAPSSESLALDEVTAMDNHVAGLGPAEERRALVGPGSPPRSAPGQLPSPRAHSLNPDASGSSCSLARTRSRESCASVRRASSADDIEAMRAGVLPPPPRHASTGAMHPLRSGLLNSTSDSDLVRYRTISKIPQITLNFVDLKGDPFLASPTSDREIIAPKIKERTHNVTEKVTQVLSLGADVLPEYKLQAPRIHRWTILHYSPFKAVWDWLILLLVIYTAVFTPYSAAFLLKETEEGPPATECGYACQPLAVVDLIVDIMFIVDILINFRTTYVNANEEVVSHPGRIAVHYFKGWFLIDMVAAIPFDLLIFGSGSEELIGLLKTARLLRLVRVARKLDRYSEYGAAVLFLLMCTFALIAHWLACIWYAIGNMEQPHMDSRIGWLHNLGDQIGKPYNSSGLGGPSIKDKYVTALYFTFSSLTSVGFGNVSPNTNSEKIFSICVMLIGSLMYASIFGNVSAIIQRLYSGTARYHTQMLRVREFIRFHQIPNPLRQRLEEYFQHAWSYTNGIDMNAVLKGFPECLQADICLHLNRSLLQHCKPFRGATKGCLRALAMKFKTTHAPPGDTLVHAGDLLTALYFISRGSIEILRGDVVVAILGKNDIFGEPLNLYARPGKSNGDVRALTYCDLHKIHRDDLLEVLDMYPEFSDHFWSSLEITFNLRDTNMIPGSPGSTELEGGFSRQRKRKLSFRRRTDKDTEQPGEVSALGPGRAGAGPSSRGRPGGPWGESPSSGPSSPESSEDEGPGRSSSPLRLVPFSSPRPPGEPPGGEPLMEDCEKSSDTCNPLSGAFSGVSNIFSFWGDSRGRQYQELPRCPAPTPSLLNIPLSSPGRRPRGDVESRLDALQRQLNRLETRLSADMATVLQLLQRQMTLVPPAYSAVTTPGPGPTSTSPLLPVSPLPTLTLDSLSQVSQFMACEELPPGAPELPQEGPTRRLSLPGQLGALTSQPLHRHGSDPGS

The test concerns the target human ether-à-go-go-related gene (hERG) potassium channel (human, UniProt Q12809). Nature of the test: primary screen, population patch clamp on CHO cells stably expressing hERG.
Regarding `CC1CCc2c(sc3nc(C(C)(C)C)nc(N4CCN(C(=O)CCl)CC4)c23)C1` (centres unmarked), the “hERG current change (%, negative = inhibition) at 10uM” value was 6.17%. Under `O=S(=O)(Nc1nc2ccccc2[nH]1)c1ccccc1` stands -10.1%; under `O=C(CSc1nnc(CNC(=O)c2ccccc2)o1)NCCc1ccccc1`, 5.15%; under `CCC(CO)NCc1sccc1C` (centres unmarked), 22.5%. Under `COc1cc(S(=O)(=O)NCCCn2ccnc2)ccc1Cl` stands 7.94%. Under `O=S(=O)(Nc1ccc(Cc2ccncc2)cc1)c1ccc(Cl)c(Cl)c1` stands -53.4%; under `O=C(O)COCC(=O)Nc1ccc(Oc2ncnc3cc(Cl)ccc23)nc1`, 11.6%; under `COC(=O)c1cccc(C23CC4(C2)[C@H](CN(Cc2ccc(-c5ccccc5)cc2)[C@@H]4c2ccccc2)C3c2ccc(Cl)nc2)c1` (some centres unmarked), -20.9%. On to `CCN1CCN(C(c2cccs2)C(C)NS(=O)(=O)c2ccccc2)CC1` (centres unmarked), for which the “hERG current change (%, negative = inhibition) at 10uM” value was -2.02%.

Take `CCSCc1nnc(SCC(=O)Nc2nc(C)cs2)n1C`: the “hERG current change (%, negative = inhibition) at 10uM” value is recorded as -1.63%.

On to `CN(C(=O)COC(=O)Cn1cnc2c1c(=O)n(C)c(=O)n2C)C1(C#N)CCCCC1`, for which the “hERG current change (%, negative = inhibition) at 10uM” value turned out to be 5.2%.

Regarding `CCOc1ccc(C2C(C(=O)OC)=CN(C(C)c3ccccc3)C=C2C(=O)OC)cc1` (centres unmarked), the “hERG current change (%, negative = inhibition) at 10uM” value is on record as 2%.

With `Cc1ccc(/C=C2/NC(=O)[C@H](C)NC2=O)cc1`, the “hERG current change (%, negative = inhibition) at 10uM” value came out at 16.6%. As to `O=C1NC2=C(C(=O)CCC2)C(c2ccc3ncccc3c2)N1` (centres unmarked), the “hERG current change (%, negative = inhibition) at 10uM” value is -1.74%. Take `COc1ccc(S(=O)(=O)N2CCN(C(=O)N3CCOCC3)C2C)cc1` (centres unmarked): the “hERG current change (%, negative = inhibition) at 10uM” value is 13.6%.

Take `CN(C)c1ccc(C(=O)NCc2ccc3c(c2)OCO3)cc1`: the “hERG current change (%, negative = inhibition) at 10uM” value is given as -1.61%. On to `CCC(=O)N1C(C(=O)NCc2ccc(OC)cc2)CSC1c1ccc(OC)cc1` (centres unmarked), for which the “hERG current change (%, negative = inhibition) at 10uM” value is -0.295%.

Turning to `CC1CCC2C(C1)OS(=O)(=O)NC2(C)C` (centres unmarked), the “hERG current change (%, negative = inhibition) at 10uM” value is recorded as 15.3%. Under `CC1(C)Cc2c(C#N)c(SCc3nc4ccccc4[nH]3)nc(N3CCOCC3)c2CO1` stands -31.8%. Under `O=C1CCC(C(=O)Nc2ccccc2N2CCOCC2)=NN1` stands 4.6%; under `Nc1c(C(=O)NCc2ccco2)nnn1Cc1ccccc1`, -13.6%; under `O=C1CC(C(=O)Nc2ccccc2C(=O)O)C(c2ccccc2)O1` (centres unmarked), 9.06%. Under `COc1cc(CNCCCN2CCOCC2)cc(Br)c1OCC(=O)N1CCCCC1.Cl` stands 6.68%. `Cc1cc(C)c(NC(=O)/C(=C/c2ccccc2)c2ccccc2)c(C)c1`: the “hERG current change (%, negative = inhibition) at 10uM” value was 0.402%. Consider `CCN(CC)S(=O)(=O)c1ccc(C(=O)Nc2ccc3c(c2)OCO3)cc1`, for which the “hERG current change (%, negative = inhibition) at 10uM” value is reported as 4.68%. Under `Cc1ccc(S(=O)(=O)N(C)c2ccc(OCC(=O)NC3=NCCS3)cc2)cc1` stands 11.3%. Under `Cl.O.O=C1CC(=C2c3ccccc3-c3ccccc32)C(=O)N1CCCCN1CCN(c2ccccc2)CC1` stands 1.05%.

Take `Cc1ccc(N2CC(C(=O)NCCc3ccc(S(N)(=O)=O)cc3)CC2=O)cc1` (centres unmarked): the “hERG current change (%, negative = inhibition) at 10uM” value was determined as 22.5%. Under `CCn1c(-c2cc(C3CC3)nc3ccccc23)n[nH]c1=S` stands 10.2%. Under `CCCCn1nc(NC(=O)c2cccs2)c2cc3cc(OC)ccc3nc21` stands -0.306%.

Take `Cc1ccsc1C(=O)OCC(=O)c1cc(C)n(CC2CCCO2)c1C` (centres unmarked): the “hERG current change (%, negative = inhibition) at 10uM” value is given as -21.5%. Under `COc1ccc(S(=O)(=O)NCc2ccncc2)cc1OC` stands 9.12%; under `CCC(C)(C)NC(=O)Cc1ccc(F)cc1`, 16.9%; under `CCN(CC(=O)NCc1cccs1)C(=O)CN(C)S(=O)(=O)c1ccc(C)cc1`, -27.3%. Under `CCCc1cc(=O)[nH]c(SCC(=O)N2CCCC2=O)n1` stands 21.6%. On to `Cn1c(=O)c2c(nc(N3CCOCC3)n2C)n(C)c1=O`, for which the “hERG current change (%, negative = inhibition) at 10uM” value is listed as -4.44%. Under `COc1ccc(C(CC(=O)N2CCCCC2)c2c(O)cc(OC)cc2OC)cc1` (centres unmarked) stands 11.6%; under `CC1=CC(C)(C)n2c(O)c(N=N)c3cc(C)cc1c32`, -0.752%. Under `CCOC(=O)CSc1nnc(NC(=O)CN2CCCCC2)s1` stands 15.2%; under `Cc1cc(C(=O)OCC(=O)N2CCC(c3ccccc3)=N2)ccc1[N+](=O)[O-]`, 6.81%; under `COc1ccc(CCNC(=O)[C@@H]2C[C@H]2c2ccccc2)cc1OC`, -7.9%. Regarding `O=C(Cn1nc2sc3ccccc3n2c(=O)c1=O)c1ccc(Cl)cc1`, the “hERG current change (%, negative = inhibition) at 10uM” value is recorded as 26.5%.

Consider `COc1ccc2oc(C(=O)OCC(=O)N3CCN(S(=O)(=O)c4ccc(C)cc4)CC3)c(C)c2c1`, for which the “hERG current change (%, negative = inhibition) at 10uM” value came out at 14.5%. Under `CC(C)Cc1nnc(NC(=O)CCC(=O)N2CCN(Cc3ccc(F)cc3)CC2)s1` stands -8.14%.
